The whole screen tested about 360,000 compounds, of which about 17,000 (4.7%) were called active. The inconclusive results got no clear call from the source; some entries with a clear call stand among them for comparison. Cut-off read from the data, not from the text of the source: active = activity change below about -50%; inconclusive = mostly about -30% to -49%; inactive = weaker than that.
Assay: qHTS for Inhibitors of Inflammasome Signaling: IL-1-beta AlphaLISA Primary Screen
Settings: THP-1 LPS/ATP IL-1B secretion, 16 h; at 57.5 µM, stronger effect = lower value
Text: Inflammasomes are a set of intracellular multi-protein complexes that enable autocatalytic activation of inflammatory caspases and drive the innate immune response to counter harmful agents. […] A qHTS assay, based on AlphaLISA technology, was developed to screen the Molecular Libraries Small Molecule Repository (MLSMR) to look for novel inflammasome inhibitors. The assay detects IL-1B using AlphaLISA anti-IL-1B acceptor and donor beads. A decreased emission signal, indicating reduced IL-1B secretion, is the desired outcome for this assay. NIH Chemical Genomics Center [NCGC] NIH Molecular Libraries Probe Centers Network [MLPCN] MLPCN Grant: MH095513 Assay Provider: Shyam Biswal Ph.D., Johns Hopkins University Immunity. 2012 Jul 27;37(1):85-95. PMID: 22819042 [2] Curr Pharm Des. 2012;18(16):2320-8. PMID: 22390695
Three microliters containing 3000 THP-1 cells were dispensed into the wells of solid, white, tissue culture treated Greiner 1,536-well plates. Library compounds and positive control, Glyburide, were pin-transferred (23 nL) by a Kalypsys pin-tool equipped with a 1,536-pin array, resulting in final compound concentration ranges of 2.5 nM to 57.5 uM. After 1 hr of cell culture incubation (37 °C, 5% CO2), 1 microL of 1 microg/mL lipopolysaccharide (250 ng/mL, final) and 5 mM ATP (1.25 mM, final) were added to stimulate the cells. After 16 hr of cell culture incubation with the compounds, 1.5 uL of anti-IL-1B acceptor beads (6 ug/mL, final) and biotinylated antibody (0.6 nM, final) were added to the plate, followed by a 1 hr incubation at ambient temperature. To detect the secreted IL-1B, 1.5 uL of AlphaLISA SA-Donor beads (24 ug/mL, final) were added, followed by 30 min of incubation in the dark at ambient temperature. The AlphaLISA signal was read by a PerkinElmer EnVision plate reader with an ultrasensitive luminescence detector and 1536 Plate HTS AlphaScreen aperture (excitation of 680nm and emission of 615nm).
For `Cc1cc(S(=O)(=O)N2CCN(CC(=O)N(C)Cc3ccccc3)CC2)ccc1Br`, the activity change was inconclusive: -44%.
In the case of `COc1ccc(N2CCN(C(=O)CN(c3cccc(Br)c3)S(C)(=O)=O)CC2)cc1`, the activity change is reported as inconclusive: -38.8%.
For `COc1ccc(-n2nnnc2C(CCSC)N2CCN(C/C=C/c3ccccc3)CC2)cc1` (centres undefined), the activity change was inconclusive: -44.8%.
With `Cc1sc2nc(CN(Cc3cccs3)C(=O)NC3CCCCC3)[nH]c(=O)c2c1C` the activity change was inconclusive: -48.9%.
For `COc1cc(-c2noc(CCCC(=O)Nc3ccc(C(N)=O)cc3)n2)cc(OC)c1OC`, the activity change was inconclusive: -34%.
In the case of `Cc1ccc(C)c(N2CCN(C(=O)CCCCCn3c(=S)[nH]c4ccc(N5CCOCC5)cc4c3=O)CC2)c1`, the activity change is reported as inconclusive: -36.3%.
With `Cc1ccccc1S(=O)(=O)Cc1ccc(C(=O)NC2CCCCCC2)o1` the activity change was inconclusive: -45.4%.
For `O=C1N/C(=C/c2ccc(N3CCOCC3)o2)C(=O)N1c1cccc(Cl)c1`, the activity change was inconclusive: -48.7%.
For `Cc1ccc2nc(NC(=O)CNS(=O)(=O)c3ccc(Br)s3)sc2c1`, the activity change was inactive: 10.1%.
For `CC1Sc2ccc(S(=O)(=O)N3CCN(c4cccc(Cl)c4)CC3)cc2NC1=O` (centres undefined), the activity change was inactive: 1.33%.
In the case of `C(=C\c1ccccc1)/CSc1nnc(-c2cccnc2)n1Cc1ccco1`, the activity change is reported as inconclusive: -36.5%.
With `CC1(C)CC2CC(C)(CN2C(=O)c2cc(-c3ccccc3)on2)C1` (centres undefined) the activity change was inconclusive: -41.3%.
With `NC(=O)c1ccsc1NC(=O)CSc1ccccc1F` the activity change was inconclusive: -34.9%.
In the case of `CN(C)/C(=N\OC(=O)c1ccccc1)c1nonc1N`, the activity change is reported as inactive: 23.1%.
In the case of `CN(C1=C(N2CCCCC2)C(=O)c2ccccc2C1=O)c1ccccc1`, the activity change is reported as active: -82.3%.
For `Cc1c(N(C)S(=O)(=O)c2ccc(Cl)c(C(=O)NCC(C)(C)N3CCOCC3)c2)c(=O)n(-c2ccccc2)n1C`, the activity change was inactive: 17.2%.
With `Nc1ccccc1-c1nnn(CC(=O)N2CCCc3ccccc32)n1` the activity change was inconclusive: -31.9%.
With `CC(C)Oc1cccc(C(=O)C2CCCN(Cc3cccn3-c3cccnc3)C2)c1` (centres undefined) the activity change was inconclusive: -30.3%.
For `CC(C)(C)c1ccc(/C=N/NC(=O)c2ccccn2)cc1`, the activity change was inconclusive: -44.4%.
With `COc1ccc(C(c2sc3nc(C)nn3c2O)N2CCc3ccccc3C2)cc1` (centres undefined) the activity change was inactive: 5.41%.
For `COc1cccc(NC2=C(NCCO)C(=O)c3ccccc3C2=O)c1`, the activity change was active: -73.7%.
For `CCCc1nc2ccc(C)cn2c1Cc1cccc(F)c1`, the activity change was inactive: 23.3%.
In the case of `COc1ccc(-c2cccc(NC(=O)COc3ccc(Cl)cc3)c2)nn1`, the activity change is reported as inactive: 13%.
For `CCCCN(C)Cc1c(O)ccc2c(-c3ccccc3)cc(=O)oc12`, the activity change was inconclusive: -39.9%.
For `CSc1nc(N)c(C(=O)N(c2ccccc2)c2ccccc2)s1`, the activity change was inactive: 1.9%.
In the case of `COc1cccc2cc(CC(=O)c3ccc(C)cc3C)c(=O)oc12`, the activity change is reported as inconclusive: -38.3%.
For `CCN(CC)c1ccc(NC(=O)c2ccc3c(c2)OCO3)cc1`, the activity change was inconclusive: -31.9%.
For `CCCCCCn1c(N2CCN(c3ccccc3)CC2)nc2c1c(=O)[nH]c(=O)n2C`, the activity change was inconclusive: -43.4%.
For `Fc1cccc(/C=N/Nc2cc(N3CCOCC3)ncn2)c1`, the activity change was active: -53.2%.
For `CC1(C)Cc2c(C#N)c(SCC(=O)c3ccccc3)nc(N3CCOCC3)c2CO1`, the activity change was inactive: -4.22%.
In the case of `Cc1ccc(Nc2nc(N)nc(CN3CCN(C(=O)c4ccco4)CC3)n2)cc1Cl`, the activity change is reported as inactive: -23.1%.
In the case of `O=C(CCl)NC(=O)NC12CC3CC(CC(C3)C1)C2`, the activity change is reported as active: -68.6%.
With `Cc1c(NC(=O)c2ccc(N3CCCC3)c([N+](=O)[O-])c2)cccc1-c1nc2ccccc2s1` the activity change was inconclusive: -45%.
For `COc1cc2nc(CN3CCN(S(=O)(=O)c4ccccc4[N+](=O)[O-])CC3)[nH]c(=O)c2cc1OC`, the activity change was inconclusive: -48.9%.
With `COc1ccc(-c2cc3ccccc3c(=O)o2)cc1` the activity change was inconclusive: -31.1%.
In the case of `Cc1ccc(OCc2nc(-c3cccs3)no2)c([N+](=O)[O-])c1`, the activity change is reported as inconclusive: -43.8%.
With `O=S(=O)(c1ccc(N2CCC(c3ccc(Cl)cc3)=N2)cc1)N(CCO)CCO` the activity change was inconclusive: -48.6%.
With `CC(=O)c1c(C)[nH]c(C(=O)Nc2nc(-c3ccc(-c4ccccc4)cc3)cs2)c1C` the activity change was inconclusive: -46.9%.
In the case of `O=C1CCN(CCc2ccccc2)CCN1[C@H](CSc1ccccc1)Cc1ccccc1`, the activity change is reported as active: -64.3%.
In the case of `COC(=O)c1cccc2c1-c1ccccc1/C2=N\NC(N)=O`, the activity change is reported as inconclusive: -35.9%.
In the case of `CCOC(=O)C1CCN(C(=O)C2(NC(=O)Nc3ccccc3C)CCCCC2)CC1`, the activity change is reported as inconclusive: -49.7%.
With `O=C(c1ccco1)N1CCN(c2ncnc3c2[nH]c2ccc(Br)cc23)CC1` the activity change was inconclusive: -49.2%.
In the case of `O=C(Nc1ccccc1N1CCOCC1)[C@@H]1O[C@H](CO)[C@H](O)[C@H](O)[C@H]1O`, the activity change is reported as inactive: 30.6%.
For `Cc1ccc(S(=O)(=O)N(CCCc2c(C)nc[nH]c2=O)c2ccccc2)cc1`, the activity change was inactive: -8.45%.
For `Cn1c2ccccc2c2c(C(=O)N3CCN(c4ccc(F)cc4)CC3)cn(C3CCCC3)c(=O)c21`, the activity change was inconclusive: -33.2%.
With `COc1ccc(OCCN2CCC(C(=O)NC(c3ccc(Cl)cc3)c3cnccn3)CC2)cc1` (centres undefined) the activity change was active: -54.1%.
For `O=C(CN1C(=O)/C(=C/c2ccc(Cl)cc2)SC1=S)NC1C=CS(=O)(=O)C1` (centres undefined), the activity change was inactive: -21%.
In the case of `CCOC(=O)c1ccc2ncc(C(=O)OCC)c(NCCN(C)C)c2c1`, the activity change is reported as inconclusive: -42.9%.
For `Oc1ccc(Cl)cc1CNCc1ccc(C(F)(F)F)cc1`, the activity change was inconclusive: -36%.
With `CCc1nc2c(OCc3ccc(OC)cc3)cccn2c1N(C)C(=O)c1ccncc1` the activity change was inactive: 24%.
For `CCOC(=O)C1CCCN(S(=O)(=O)CCNC(=O)c2cccc(OC)c2)C1` (centres undefined), the activity change was active: -68.2%.
With `N#Cc1ccc(NC(=O)Nc2ccc(Oc3ccc(NC(=O)Nc4ccc(C#N)cc4)cc3)cc2)cc1` the activity change was active: -80%.
In the case of `Cc1cc(C)cc(OCC(=O)N/N=C/c2ccc([N+](=O)[O-])o2)c1`, the activity change is reported as active: -63.6%.
With `Cn1ncc([N+](=O)[O-])c1C(=O)Nc1ccc(-c2nc3ccccc3o2)cc1` the activity change was inconclusive: -48.3%.
% is set by controls: 0 for no effect and ±100 for the full control effect.
